Assay results taken from PMC4336329 (PLoS ONE, 2015).
The campaign covered roughly 310,000 compounds. About 14,000 (4.5%) showed an effect of 50% or more. The effect is printed as a negative number. Some of the results follow.

Target: human ether-à-go-go-related gene (hERG) potassium channel (human, UniProt Q12809)
Assay: primary screen, population patch clamp on CHO cells stably expressing hERG
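Further: peak tail current of the secondary pulse compared with the same well before compound.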

Sequence of human ether-à-go-go-related gene (hERG) potassium channel (Q12809 whole entry, looked up): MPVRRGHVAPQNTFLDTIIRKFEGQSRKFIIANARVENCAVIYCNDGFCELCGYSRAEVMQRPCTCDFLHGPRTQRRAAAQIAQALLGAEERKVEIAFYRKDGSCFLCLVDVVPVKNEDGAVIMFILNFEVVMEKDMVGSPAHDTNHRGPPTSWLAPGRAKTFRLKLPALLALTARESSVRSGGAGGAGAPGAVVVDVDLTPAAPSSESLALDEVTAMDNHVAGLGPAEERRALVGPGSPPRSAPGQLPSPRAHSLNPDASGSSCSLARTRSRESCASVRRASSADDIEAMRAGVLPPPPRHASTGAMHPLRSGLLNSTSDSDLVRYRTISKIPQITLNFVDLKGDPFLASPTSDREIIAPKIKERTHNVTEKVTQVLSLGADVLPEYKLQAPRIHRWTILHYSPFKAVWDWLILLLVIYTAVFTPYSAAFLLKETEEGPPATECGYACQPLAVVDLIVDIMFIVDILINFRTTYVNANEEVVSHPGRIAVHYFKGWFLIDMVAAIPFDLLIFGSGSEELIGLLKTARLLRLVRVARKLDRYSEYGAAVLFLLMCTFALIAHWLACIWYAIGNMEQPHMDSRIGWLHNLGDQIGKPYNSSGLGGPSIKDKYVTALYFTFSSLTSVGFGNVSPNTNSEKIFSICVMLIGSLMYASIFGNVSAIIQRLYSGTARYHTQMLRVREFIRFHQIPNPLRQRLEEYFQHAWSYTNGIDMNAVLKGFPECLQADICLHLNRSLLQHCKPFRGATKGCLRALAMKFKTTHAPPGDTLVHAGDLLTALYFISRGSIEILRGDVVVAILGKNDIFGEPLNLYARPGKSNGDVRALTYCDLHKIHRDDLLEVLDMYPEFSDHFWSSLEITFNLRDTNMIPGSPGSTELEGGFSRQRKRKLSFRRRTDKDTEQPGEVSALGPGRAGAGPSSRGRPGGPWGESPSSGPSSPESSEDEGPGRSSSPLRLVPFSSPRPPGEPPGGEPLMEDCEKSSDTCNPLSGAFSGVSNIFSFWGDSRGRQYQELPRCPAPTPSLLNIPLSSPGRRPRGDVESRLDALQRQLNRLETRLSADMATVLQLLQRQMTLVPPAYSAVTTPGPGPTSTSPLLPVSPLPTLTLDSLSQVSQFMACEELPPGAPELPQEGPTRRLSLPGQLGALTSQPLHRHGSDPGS

Row | Compound | hERG current change (%, negative = inhibition) at 10uM
1 | COc1cc(/C=N/NC(N)=O)c(Br)cc1OCC(=O)Nc1ccccc1C | -11.3%
2 | Cc1ccc(C2NC(=O)NC(O)(C(F)(F)F)C2C(=O)c2ccccc2)o1 (stereo not shown) | -5.24%
3 | Cn1nc(-c2ccccc2)c2ncc(C(F)(F)F)cc21 | -5.15%
4 | CC(=O)/C(=N/Nc1ccc([N+](=O)[O-])cc1)N1CCCc2ccccc21 | 7.77%
5 | CC(=O)NC(C)(CC(=O)c1ccccc1)c1ccccc1 (stereo not shown) | 3.77%
6 | Cn1c(=O)oc2cc(S(=O)(=O)NCCC(=O)NCCc3ccccc3)ccc21 | 1.29%
7 | CCOC(=O)c1sc2c(c1C)c(=O)c(C(=O)OCC)cn2CC | 12.5%
8 | Cc1ccc(OCC(=O)Nc2ccc(F)cc2)cc1C | 13.1%
9 | COc1ccc(N=C2C(=O)Nc3ccccc32)cc1 | -6.61%
10 | NC(=O)c1c(NC(=S)Nc2ccccc2)sc2c1CCCC2 | 28.9%
11 | NS(=O)(=O)c1ccc(NC(=O)/C=C/c2ccc3c(c2)OCO3)cc1 | 8.18%
12 | CCOC(=O)c1cc2cc(OCc3ccccc3)ccc2nc1C | 9.26%
13 | CCOc1ccc(N(CC(=O)N/N=C/c2cccnc2)S(C)(=O)=O)cc1 | -11.7%
14 | CC1=C(C#N)C(=O)N(C)C(C)(C)C1 | 4.83%
15 | CCCNC(=O)c1cc(-c2ccc3c(c2)OCO3)on1 | 18%
16 | COc1ccc(Cc2nc3ccc(C(=O)NCc4cc(C)no4)cc3o2)cc1 | 17.4%
17 | Cc1ccc(CN2CCC(n3nccc3NC(=O)C3CCOC3)CC2)cc1 (stereo not shown) | -26.8%
18 | COc1ccc(NS(=O)(=O)c2ccc(O)c(C(=O)OCC(=O)N3CCCCC3)c2)cc1 | -7.02%
19 | CC(NC(=O)c1ccccc1)C(=O)N/N=C/c1ccc(O)cc1 (stereo not shown) | 14.1%
20 | CCOC(=O)c1ccc(N(CC(=O)NCC2CCCO2)C(=O)CCC(=O)Nc2cc(C)on2)cc1 (stereo not shown) | 9.99%
21 | Cc1cc2n(n1)SC(Nc1ccc(F)c(Cl)c1)N2 (stereo not shown) | -7.58%
22 | CCN1CCN(c2nc(-c3ccccc3)c3ccccc3n2)CC1 | -71.2%
23 | CCOc1ncccc1C(=O)NCCc1ccc(Cl)cc1 | -5.75%
24 | Cc1ccc2nc(-c3ccc(Br)cc3)cn2c1 | 10.2%
25 | COc1ccccc1NC(=O)C1=C(C)Nc2nc(-c3cccs3)nn2C1c1cccc(O)c1 (stereo not shown) | -40.3%
